From the supplement of paper PMC11417369
The other results are listed elsewhere or left out.

system: PfSIP2 AP2 domain 1 (GST-tagged); experiment: gcPBM binding intensity (ln(normalized median fluorescence intensity)); higher = stronger DNA binding
Method in brief: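 After 1 h on an Agilent 4 × 180k array of primer-extended double-stranded 36-bp intergenic genomic probes and negative controls, bound GST-tagged P. falciparum DNA-binding domains were detected with Alexa488 anti-GST antibody and scanned at 488 nm. The domains had been expressed in E. coli, and binding took place in 1× PBS with 1% milk, 0.2 mg/ml BSA, 0.5% salmon testes DNA and 0.03% Triton X-100. Binding intensity is the highest Masliner-normalised natural-log median intensity across replicate spots of either probe orientation.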

Point of comparison: “TGGAAAATAAAGTACGCACACAAAAATTCTCTTCAT [CACACA_site2327]”, “gcPBM binding intensity (ln)” value 7.16. Against it:
- AATTATTCTCTTTTCATTTGAACAATATGCTTAAAA [CACACA_negctrl_site995] — lower, 6.99
- AATATTTTTTAAATGTGTACATAGGTATAGCACACA [XGTACX_site8690] — lower, 7.1
- AGTCATATAAATAGTAGTACTGTGTGTGAAGAAAAA [XGTACX_site5056] — higher, 7.42
- ACACATTCGAAAAATTGTACATATATAACAGAATAT [XGTACX_site7106] — lower, 7
- ACAAATATGAGAAATTGTACATATAATAAAATAGTA [XGTACX_site2573] — lower, 6.93
- GACTGCACTTTAAGCACACAAATATATTTTTTTTAT [CACACA_site1249] — higher, 8.41
- ATCAAATTTGGACATGCATGTGTGTGTAAAACCATG [TGCATGCA_site309] — higher, 7.23
- ATATTAGTCGAATGATGTACACACATACAAAACATT [XGTACX_site8613] — higher, 7.17
- TCTACAAGGCTTGATCGTACAATTTGAATGTATTTG [XGTACX_site7698] — lower, 6.68
- CTCAACATATACGTAACACACATATATATATATATA [CACACA_site3838] — higher, 9.27
- AAAATAACGAGTCAAACACACATATATATATATATA [CACACA_site2039] — higher, 9.54
- TATATATATATATACACACACACAAAAAAAAAAAAA [CACACA_site1505] — higher, 9.28
- AGCATAAACAATTTTTGAAAAAATATACACTCATAG [CACACA_negctrl_site890] — lower, 7.04
- TATGCAAGGAACCACACACACACACCCAAATGTATA [CACACA_site750] — higher, 7.17
- AGATTATATATATGTATATATGTATATATTTATATA [CACACA_negctrl_site1797] — lower, 6.87
- TATCTCTCTTTCTGCTGTACATAAAAATTATATAAT [XGTACX_site5961] — higher, 7.54
- AACATATTTTTAAATACACACACATAAAAAAAAAAA [CACACA_site8279] — lower, 7
- TCATATTTGCCTTTTTATTTAGAACACAAAAAAAAA [CACACA_negctrl_site1152] — higher, 7.23
- TATATATAATATACATGTACAAATGTATTTAAAAAT [XGTACX_site6090] — lower, 7.07
- AGAAAATACACGCATACACACACACCCACCCACATA [CACACA_site8115] — the same, 7.16
- CAAAAAAAGAAAGCTACACACATTTATGTGCTATAT [CACACA_site2777] — lower, 6.69
- ATTATAATAGTTAAATGTACACACTAACTACATGGA [XGTACX_site6918] — lower, 7.02
- AATTAAAAATTCAAGTGTACTTTTATATTATTATAC [XGTACX_site4106] — higher, 7.31
- ATTCGGATATATATCACACATAACTTTAATAATATA [CACACA_site5720] — lower, 6.89
- TAAATAGCCAAACGCACACCCACAAAAAAAAAAAAA [CACACA_site1554] — higher, 7.34
- AGAGAATATTTCCACACATGCAAATGTTATATGTAA [TGCATGCA_site282] — higher, 8.29
- ATTGATTTTTAATATACACACATAAGGACCACAAAA [CACACA_site4344] — higher, 7.45
- AATACGCATTTTAGTACACACTTAAAAAGTTATTTT [CACACA_site7401] — lower, 7.03
- AATTATATTAATTCTTCATTACATTTTAAAATATTA [XGTACX_negctrl_site510] — lower, 6.88
- TTCGTTATATTTTGATGTACTGATTCATATATATAT [XGTACX_site1835] — higher, 8.52
- TGCTATTATTTATGTACACACCAATTTATTTATAAT [CACACA_site6029] — higher, 7.55
- TTATAATATAAAAATAAATAAATAAATAAATAAATA [CACACA_negctrl_site1587] — higher, 7.22
- TAATATTTATTCTATTGTACATAAAATATATATATA [XGTACX_site7132] — higher, 8.65
- GGAAAGACATTACACAGTACCCAGGAAATCTACGGA [XGTACX_site2002] — lower, 6.65
- TCAACATTTAAAAATAGTACTCATAAACCTTTCGAA [XGTACX_site4111] — lower, 6.7
- ATTATATATGTATAAATATGCTATATATATATATAT [GTGCAC_negctrl_site430] — higher, 9.4
- ATAAATAAAAAACACACACACACACCCAAAAAAAAA [CACACA_site2624] — lower, 7
- TATACATATGTATGCACACATACATACACATAGAAT [CACACA_site3480] — lower, 7.15
- TATATTATTTAAAAAGTGCAGTTACAAGATGAACCT [GTGCAC_site9641] — higher, 8.2
- TTCAAACATATTAATTGTACATACAACAAAACCATG [XGTACX_site5149] — lower, 7.13
- AATATATTTTAGAGTTTTATATATTTTATGCATATA [GTGCAC_negctrl_site710] — lower, 7
- ATATTATTTTATGCTACACACATTTTCTCTTATAAA [CACACA_site943] — higher, 7.23
- AAAAAAAAAAAACACACACACACATTCAATATAAAA [CACACA_site40] — higher, 7.17
- ATATGTATTTATGTATTTATGTATTTTTATATTTTT [CACACA_negctrl_site595] — lower, 6.85
- GGAATTTTTATTCGAAGTACTGTTGTGAGTAATAAA [XGTACX_site8599] — lower, 7.11
- TAAATGTTAAAATTCACACAAATATGTGCGGAATAT [CACACA_site5055] — lower, 6.92
- TTTGACTAAATTAAATATTAAAGTATGGATTATTCT [CACACA_negctrl_site833] — lower, 6.66
- ACCCATTTGATAATAATGCACACCACATATATTTAT [CACACA_site3061] — higher, 7.54
- TGCAAGGAACAACACACACACACATAAATGTATATA [CACACA_site8149] — lower, 7.11
- ATATATAATATATACACACACATGTATATATAAATA [CACACA_site1968] — higher, 7.27
- AAGACCATATGAATAATGCACACGTTTTAAAATATT [CACACA_site2323] — higher, 7.37
- TTTCCATTTTCTCTATGTACATAAAAATGAGATAAA [XGTACX_site5689] — higher, 7.17
- CACACGCACGGACACACACACAAAAAAAAAAAGAAA [CACACA_site6378] — higher, 7.72
- GTTTGGTGGTGTTTTGGTACGTACGGGGGTGTATGT [XGTACX_site1211] — higher, 8.28
- AAATAAATCTTATGCACACAAATAATTAATGAAACA [CACACA_site5011] — higher, 8.12
